The values that follow come from patent publication US20260209325A1, “SELECTIVE AND POTENT INHIBITORY ANTIBODIES OF MYOSTATIN ACTIVATION” (SCHOLAR ROCK, INC., priority 2022, published 2026).

One data set addresses cyno pro-myostatin (Macaca fascicularis, UniProt Q95J86). Briefly: Biacore 8k SPR binding affinity, cyno pro-myostatin. Also on record: species or system cynomolgus monkey. The text has this:
(§1) The Biacore™ 8k SPR system was utilized to evaluate the binding affinity of myostatin antibodies to biotinylated human, murine, and cyno pro-myostatin. Biotin CAPture kit and sensor chips (Cytiva) were utilized in these experiments to immobilize the various antigens, followed by flowing a range of concentrations of each of the test antibodies.
Background: Surface plasmon resonance follows binding to a sensor surface in real time, without labels.

The next data set addresses murine pro-myostatin (Mus musculus, UniProt O08689). Description: Biacore 8k SPR binding affinity, murine pro-myostatin.
Text: as §1

Data set [1] addresses T1, human pro-myostatin (Homo sapiens, UniProt O14793). Description: SEC-MALS binding stoichiometry. The note with it: for SEC-MALS Result: mass of complex. As for the experimental part: A combination of size exclusion chromatography and multi-angle light scattering (SEC-MALS) was used to determine the approximate mass and therefore the oligomeric state of the antibodies and their stoichiometry of binding to human promyostatin. The monoclonal antibody (mAb) or its Fab fragment was mixed with 50 μg of human pro-myostatin at a ratio of 1:1, 2:1 or 3:1 (antibody to antigen) for at least 24 hours at room temperature for immune complexes to form, filtered and injected into an analytical SEC column (Waters HPLC with a Superdex 200 10/300), flowed through a refractive index detector and then a miniDAWN® multi-angle light scattering detector to determine the mass. A full-length human-pro-myostatin with an N-terminal His6 tag (SEQ ID NO: 941) was used to express pro-myostatin in HEK cells. The signal peptide present in the construct is cleaved during biosynthesis. The resulting recombinant human pro myostatin was purified using the His6 tag (SEQ ID NO: 941) and used for the experiment.

A short description of data set [2]: dexamethasone-induced muscle atrophy mouse model. The note with it: dexamethasone treated mice. Type of data set: in vivo. An excerpt: To evaluate in vivo efficacy of the novel myostatin-selective inhibitors disclosed herein, the ability of the antibodies to preserve lean muscle mass was examined in a dexamethasone-induced atrophy mouse model. An excess of glucocorticoids directly stimulates myostatin production via interactions with a glucocorticoid response element in the myostatin promoter, thus inducing loss of muscle mass. As shown herein, antibodies of the disclosure prevented glucocorticoid-induced muscle atrophy.
C57BL6 male mice (n=8) at 13-14 weeks of age were given normal drinking water or water containing dexamethasone at a concentration of 2.5 mg/kg (17.5 grams dexamethasone per liter of drinking water) to induce atrophy. […] Body weight was measured daily. Body composition was measured by qNMR to determine lean mass pre-dosing, at day 7, and at day 14. After 14 days of dexamethasone exposure, the animals were terminated, and body weight and gastrocnemius weight were measured. Terminal blood for each animal was also collected.
C57BL6 male mice (n=8) at 13-14 weeks of age were given normal drinking water or water containing dexamethasone at a concentration of 2.5 mg/kg to induce atrophy. Mice were dosed at day 1 and day 7 with vehicle (PBS), IgG control (“hIgG”) or different doses of the test antibodies, as shown in Table 13. Muscle mass at days −1, 6 and 13 was measured using qNMR. At the end of the study (day 14), serum from each animal was collected and changes in body weight, body composition (qNMR), left and right gastrocnemius weight, and left and right quadriceps weight were measured. Statistical analysis was performed by ANOVA (Dunnett's multiple comparison test).
In a third experiment, antibody doses ranging from 0.3 mg/kg to 10 mg/kg were compared for their effectiveness in attenuating dexamethasone-induced atrophy. C57BL6 male mice (n=8) at 13-14 weeks of age were given normal drinking water or water containing dexamethasone at a concentration of 2.5 mg/kg to induce atrophy. Mice were dosed at day 1 and day 7 with vehicle (PBS), human IgG control (“hIgG”) or different doses of the test antibodies, as shown in Table 14 below. qNMR was used to measure muscle mass at days −1, 6 and 13. At day 14 the study ended, serum was collected and changes in body composition (qNMR), left and right gastrocnemius weight, and left and right quadriceps weight were determined. Circulating myostatin was measured in the serum of a terminal bleed taken at day 14. Statistical analysis was performed by ANOVA (Dunnett's multiple comparison test).
In a fourth experiment, antibodies Ab109 and Ab133 were compared to control human IgG and Ab2 in the same protocol as described above.

Data set [3] addresses T1, human pro-myostatin. Briefly: Biacore 8k SPR binding affinity, human pro-myostatin.
Text: as §1

Another data set concerns total myostatin. Description: circulating total myostatin in serum by ELISA after acidification, dexamethasone study. Format: in vivo, mouse. The note with it: statement in description. As for the experimental part: An assay of the target engagement of the antibodies, i.e., a pharmacodynamic assay, can be performed by measuring the binding of the antibodies to myostatin. In some embodiments, myostatin is detected as described by Lakshman et al. (Mol. Cell. Endocrinol. (2009) 302(1): 26-32), the contents of which are incorporated herein in their entirety. In some embodiments, samples are treated with acid to convert all myostatin forms to the mature growth factor; a biotinylated capture antibody that is specific for mature myostatin is added to a streptavidin coated plate and detected with a labeled antibody that is specific for mature myostatin.
Briefly, serum samples were acidified at low pH (e.g., pH ~2.5) to dissociate the bound antibody from the immune complex and to convert all myostatin in the sample to the active form of growth factor (i.e., mature myostatin). Samples were then neutralized and assayed for the presence of mature myostatin on ELISA plates coated with anti-mature myostatin antibodies as capture reagents.
Background: An ELISA detects its analyte on a solid surface through an enzyme-linked reagent.

[4] abbreviates: Fab fragment, input ratio Fab:pro-myostatin 2:1.
Setting [5] is: Fab fragment, input ratio Fab:pro-myostatin 3:1.
[6] abbreviates: full-length mAb, input ratio mAb:pro-myostatin 1:1.
Setting [7] is: full-length mAb, input ratio mAb:pro-myostatin 3:1.

B1: Ab112: anti-pro/latent myostatin antibody; CDR sequences in Table 2d (antibody)
heavy: QVQLVQSGAEVKKPGASVKVSCKVSGGTFGIYAIHWVRQAPGKGLEWMGGTIPVFGTAIYAQKFQGRVTMTEDTSTDTAYMELSSLKSEDTAVYYCASLTGIAAAGTHPARGGMDVWGQGTTVTVSSASTKGPSVFPLAPCSRSTSESTAALGCLVKDYFPEPVTVSWNSGALTSGVHTFPAVLQSSGLYSLSSVVTVPSSSLGTKTYTCNVDHKPSNTKVDKRV[human IgG4 Fc with S228P (EU numbers) left out]
light: DIQMTQSPSSVSASVGDRVTITCRASPSISSYLAWYQQKPGKAPKLLIYAASRLQSGVPSRFSGSGSGTDFTLTISSLQPEDFANYYCQEYLSFPLTFGGGTKVEIKRTVAAPSVFIFPPSDEQLKSGTASVVCLLNNFYPREAKVQWKVDNALQSGNSQESVTEQDSKDSTYSLSSTLTLSKADYEKHKVYACEVTHQGLSSPVTKSFNRGEC
As to B1, the “Ka” value with cyno pro-myostatin was found to be 207000 M⁻¹ s⁻¹; in the data set with murine pro-myostatin it was 251000 M⁻¹ s⁻¹; with human pro-myostatin [3], 217000 M⁻¹ s⁻¹. Further, the “Kd (1/s)” value came out at 0.000124 s⁻¹ in the data set with cyno pro-myostatin, 0.000188 s⁻¹ with murine pro-myostatin and 0.000122 s⁻¹ with human pro-myostatin [3]. Besides, the “MALS observed molecular weight of Fab:pro-myostatin complex” value with human pro-myostatin [1] (Fab fragment) came out at 186.5 kDa. Moreover, the “SEC-MALS Result” value with human pro-myostatin [1] (setting [4]) is reported as 176.9 kDa; with human pro-myostatin [1] (setting [5]), 180.9 kDa; with human pro-myostatin [1] (setting [6]), 2,519 kDa; with human pro-myostatin [1] (setting [7]), 699.6 kDa. Besides, in the data set with human pro-myostatin [1] (full-length mAb), the “binding stoichiometry mAb:pro-myostatin” value is “large poly-daisy chains”. Also, the “Stoichiometry By MALS (mAb:pro-myostatin) Main peak” value with human pro-myostatin [1] (full-length mAb, main peak) is listed as “Poly”. Also, in data set [2] (second experiment (FIG. 9)), the “prevention of muscle atrophy” value is “less effective in preventing muscle-induced atrophy than Ab109 and Ab127”.

B2: Ab123: anti-pro/latent myostatin antibody; CDR sequences in Table 2d (antibody)
heavy: EVQLVESGGGLVQPGGSLRLSCAASGFTFSKYDMSWVRQAPGKGLELVASISSSGGTRYYPDSVKGRFTISRDNAKNSLYLQMNSLRAEDTAVYYCAKDLWVASPGYGMDVWGQGTTVTVSSASTKGPSVFPLAPCSRSTSESTAALGCLVKDYFPEPVTVSWNSGALTSGVHTFPAVLQSSGLYSLSSVVTVPSSSLGTKTYTCNVDHKPSNTKVDKRV[human IgG4 Fc with S228P (EU numbers) left out]
light: DIVMTQSPLSLPVTPGEPASISCRSSQSLLHSSGHNYLHWYLQKPGQSPQLLIYLGSIRAPGVPDRFSGSGSGTDFTLKISRVEAEDVGVYYCMQALLNPPTFGGGTKVEIKRTVAAPSVFIFPPSDEQLKSGTASVVCLLNNFYPREAKVQWKVDNALQSGNSQESVTEQDSKDSTYSLSSTLTLSKADYEKHKVYACEVTHQGLSSPVTKSFNRGEC
Turning to B2, the “Ka” value in the data set with cyno pro-myostatin worked out at 1.59e+06 M⁻¹ s⁻¹; with murine pro-myostatin, 1.25e+06 M⁻¹ s⁻¹; with human pro-myostatin [3], 1.38e+06 M⁻¹ s⁻¹. Besides, the “Kd (1/s)” value with cyno pro-myostatin was 0.000539 s⁻¹; with murine pro-myostatin, 0.000772 s⁻¹; with human pro-myostatin [3] it was 0.000543 s⁻¹. In addition, in the data set with human pro-myostatin [1] (Fab fragment), the “MALS observed molecular weight of Fab:pro-myostatin complex” value came to 137.5 kDa. Moreover, the “SEC-MALS Result” value with human pro-myostatin [1] (setting [4]) is 141.2 kDa; with human pro-myostatin [1] (setting [5]) it was 144.5 kDa; in the data set with human pro-myostatin [1] (setting [6]) it was 236.1 kDa; in the data set with human pro-myostatin [1] (setting [7]), 237.5 kDa. The “maintenance of body weight (percent change from baseline)” value in data set [2] (antibody 3 mg/kg/day, FIG. 6A, 9A) is recorded as “to a greater extent than Ab2”.

B3: Ab132: anti-pro/latent myostatin antibody; CDR sequences in Table 2d (antibody)
heavy: EVQLVESGGGLVQPGGSLRLSCAASGFTFSSYGMSWVRQAPGKGLELVASFTGSGGTYYPDSVKGRFTISRDNAKNSLYLQMNSLRAEDTAVYYCARDLLIRFLEWSHYYGMDVWGQGTTVTVSSASTKGPSVFPLAPCSRSTSESTAALGCLVKDYFPEPVTVSWNSGALTSGVHTFPAVLQSSGLYSLSSVVTVPSSSLGTKTYTCNVDHKPSNTKVDKRV[human IgG4 Fc with S228P (EU numbers) left out]
light: DIVMTQSPLSLPVTPGEPASISCRSSQSLLHSSGHNFLHWYLQKPGQSPQLLIYEVSNRVSGVPDRFSGSGSGTDFTLKISRVEAEDVGVYYCQQQTQYPPTFGGGTKVEIKRTVAAPSVFIFPPSDEQLKSGTASVVCLLNNFYPREAKVQWKVDNALQSGNSQESVTEQDSKDSTYSLSSTLTLSKADYEKHKVYACEVTHQGLSSPVTKSFNRGEC
Take B3: in the data set with total myostatin, the “accumulation of myostatin in serum of dosed subjects, compared with apitegromab” value is listed as “little or no accumulation of total myostatin”.
